About 60 (0.1%) of roughly 46,000 compounds were called active. Inconclusive results (about 3%) are left out. Calls follow the shape of the dose curve; as a rule, active = well fitted inhibition curve with a large enough effect; inconclusive = small, poorly fitted or top-dose-only effect; inactive = no such curve, though single readings can be large or run the other way. The list shows a part of the results.
Test: Primary qHTS assay for Inhibitors of ovarian cancer metastasis using an organotypic tumor microenvironment (TME) model. Also: nearly all actives have a fitted effect of over 65% in size.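 As to activity change, negative = inhibition: plate controls were DMSO wells for no effect and tomatine positive control wells for full effect.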
Conditions: SKOV3ip1-GFP adhesion/invasion on 3D omental model, fluorescence; series mostly up to 45.8 µM; activity change, negative = inhibition: at the top concentration
Summary of the method: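 qHTS, 4-pt dose (0.36-46 umol/L); SKOV3ip1-GFP, 1,200 cells/well, no FBS; primary omental fibroblast/mesothelial co-culture 48 h pre-grown; 2 h RT + 16 h 37 C; PBS wash, 4% PFA; GFP count 488/509 nm.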

Activity change, negative = inhibition, inactive:
O=C(c1ccco1)N1CCN(C(=O)c2cnn(-c3cccc(F)c3)c2C2CCNCC2)CC1 43.4%, Cc1cccc(-c2nc(SCC(=O)N(C)c3ccccc3)c3c(=O)n(C)c(=O)n(C)c3n2)c1 13.2%, O=C(O)c1ccc(C2Nc3ccccc3-c3nnc(SCc4ccc(Cl)cc4)nc3O2)cc1 (stereo not drawn) -9.12%, Cc1ccc(-c2cc(C(F)(F)F)n3ncc(-c4ccc(Cl)cc4)c3n2)cc1 -6.23%, CCOC(=O)C1CCN(C(=O)c2ccc3c(c2)N=C(CC)c2cc(C)ccc2S3)CC1 6.19%, CN(C)CCN1C(=O)c2cccc3cc(N)cc(c23)C1=O 11%, CCCCn1c(=O)nc2n(-c3ccc(F)cc3)c3ccccc3cc-2c1=O 4.36%, CC(Sc1nc2c([nH]c3ccccc32)c(=O)n1-c1ccccc1)c1ccccc1 (stereo not drawn) -28.1%, CCC(=O)N1CCc2cc(S(=O)(=O)CCC(=O)NCc3ccc(OC)cc3)ccc21 8.12%, O=C(CSc1nc2c(cnn2-c2ccc(F)cc2)c(=O)[nH]1)Nc1ccccc1C(F)(F)F -4.08%, COc1cccc(CNC(=O)c2cc3ccc4cccnc4c3[nH]2)c1 -2.76%, CCOc1ccc(N2CC(c3nc4ccccc4n3CCOc3ccccc3)CC2=O)cc1 (stereo not drawn) 12.1%, COc1ccc(C2C=C(c3ccccc3)Nc3nc(NC(=O)/C=C/c4ccc(Cl)cc4)nn32)cc1 (stereo not drawn) -20%, Cc1nc2ncnn2c(C)c1CCC(=O)NCc1cccc(Cl)c1 6.32%, CCCCc1nn2c(=O)cc(COC(=O)c3ccccc3NC(=O)c3cccc(C)c3)nc2s1 0.0399%, O=c1cc(CN2CCOCC2)occ1OCCCCCSc1ccnc2cc(C(F)(F)F)ccc12 -0.824%, Cc1cccc(NC(=O)c2c(C)oc3ncnc(N4CCCCC4)c23)c1C 8.07%, CCOC(=O)N1CCN(C(=O)Cn2ncc3c4ccccc4n(Cc4ccc(F)cc4)c3c2=O)CC1 -15.9%, O=C(COc1ccc(F)cc1)Nc1ccc(Cl)c(-c2nc3ccccc3[nH]2)c1 -1.17%, COc1ccccc1-c1nnc(C2CCN(S(=O)(=O)c3ccc(F)c(C)c3)CC2)o1 3.08%, Cc1noc(C)c1S(=O)(=O)NCCc1csc2nc(-c3ccc(Cl)cc3)nn12 -5.37%, CCOC(=O)c1c(NC(=O)COc2ccc(Br)cc2)sc(C(C)=O)c1C -5.63%, Cc1ccc(C(=O)NCC(c2cccnc2)N2CCc3ccccc3C2)cc1C (stereo not drawn) 14.3%, CC(=O)Nc1cccc(-c2cn3cccnc3n2)c1 -2.46%, COc1ccc2nc(NC(=O)c3cc(=O)c4cc(C)c(C)cc4o3)sc2c1 2.38%, Cc1nc(-c2ccc(F)cc2)sc1CCNC(=O)c1ccc(C(C)(C)C)cc1 -5.39%, N#Cc1ccccc1OCC(=O)N1CCN(c2ccccc2F)CC1 -0.0486%, Nc1c(C(=O)c2ccccc2)sc(Nc2ccc(Cl)c(Cl)c2)c1C(=O)Nc1ccccc1 3.28%, Cc1cccc(NC(=O)c2sc(-n3nc(C)c(CCC(C)C)c3C)nc2C)c1 -9.83%, Cc1ccc2c(c1)N(C(=O)N1CCC(C(=O)NCc3ccccc3F)CC1)CC(C)O2 (stereo not drawn) 5.88%, CCOC(=O)CSc1nc2c(sc3ccccc32)c(=O)n1Cc1ccc(OC)cc1 -12.4%, COc1ccc(-n2c3c(cc(-c4nc(-c5ccc(Cl)cc5)cs4)c2=O)C(=O)CC(C)(C)C3)cc1Cl 6.25%, CCOc1ccc(NC(=O)CCSc2nc(-c3ccc4c(c3)OCO4)cc(C(F)(F)F)n2)cc1 -6.26%, COc1cc2ccccc2cc1C(=O)Nc1ccc2oc(-c3cccc(C)c3)nc2c1 -3.81%, COc1ccc(OC)c(NC(=O)N2CCN(Cc3nc4ccc(C)cc4o3)CC2)c1 -27%, COc1ccc(-c2cn3c(n2)sc2cc(C(=O)Nc4ccc(C)cc4C)ccc23)cc1 -19.5%, O=S(=O)(c1ccccc1)c1nc(-c2ccccc2F)oc1N1CCOCC1 27.7%, CN(C(=O)Cn1nnc(-c2ccc(S(C)(=O)=O)cc2)n1)c1ccccc1 -14.1%, CCN1C(=O)c2ccccc2Sc2ccc(NC(=O)c3ccc(C#N)cc3)cc21 -9.24%, Cc1ccccc1NCc1nc2ccccc2n1CCOc1ccccc1 -9.33%, COc1ccc(NC(=O)CSc2oc(-c3ccco3)nc2S(=O)(=O)c2ccccc2)c(OC)c1 -16.2%, Cc1c(C(=O)N(C)C)sc2c1c(=O)n(-c1ccccc1C(F)(F)F)c(=O)n2Cc1cccc(F)c1 3.95%, O=C(NCCc1ccccc1)C1COc2ccccc2C1 (stereo not drawn) -25.4%, Cc1cc(=O)n(CC(=O)NC(C)c2ccccc2)c2c1c(C)nn2C (stereo not drawn) -2.34%, CCOC(=O)c1c(C)n(-c2ccccc2)c2ccc(OC(=O)c3cc(OC)cc(OC)c3)cc12 -1.04%, Cc1ccc(NC(=O)Cn2cc(C(=O)C3CCCCC3)c3ccccc32)c(C)c1 3.77%, CN1[C@H]2CC(OC(=O)[C@@H](CO)c3ccccc3)C[C@H]1[C@H]1O[C@H]12 (stereo partly drawn) -0.985% [at 23.2 µM], Cc1cccc(C(=O)Nc2nnc(S(=O)(=O)N3CCCc4ccccc43)s2)c1 3.25%, Cn1c(=O)n(C)c2cc(NS(=O)(=O)c3ccc(C(C)(C)C)cc3)c(NCc3ccccc3)cc21 -34.7%, CCCNc1nc2c(c(=O)n(C)c(=O)n2C)n1CC(O)COc1ccccc1 (stereo not drawn) 3.93%, CCC(=O)Nc1cc(-c2nc3ccccc3s2)c(Cl)cc1Cl -0.353%, CCS(=O)(=O)N1CCc2cc(C(=O)Nc3cc(OC)c(Cl)cc3OC)ccc21 2.73%, CCOc1ccc(C(=O)Nc2ccc3oc(-c4ccncc4)nc3c2)cc1 15.8%, Cc1ccc(Nc2nc(C)c(NC(=O)c3ccc(C)cc3)c(Nc3ccc(C)cc3)n2)cc1 1.32%, CCN1c2ccccc2-c2nc(SCC(=O)Nc3cc(F)ccc3F)ncc2S1(=O)=O 9.27%, CCOc1ccc(C2C(=O)N(C3CCCCCC3)CC(=O)N2CCc2ccc(Cl)cc2)cc1OC (stereo not drawn) -0.259%, O=C(Cn1ccc2cc(S(=O)(=O)N3CCCC3)ccc21)NCc1ccccc1Cl 2.62%, Cc1ccc(-c2nnc(Nc3cccc(Br)c3)c3ccccc23)cc1S(=O)(=O)NCC1CCCO1 (stereo not drawn) -3.92%, COC(=O)c1ccccc1NC(=O)CSc1nnc2cc(C)c3cc(C)cc(C)c3n12 16%, Cc1ccc(NC(=O)CCCn2nc(C)c3sc4ccccc4c3c2=O)c(Cl)c1 -5.64%, O=C(c1ccc2c(c1)N(Cc1ccc(Cl)cc1)C(=O)c1ccccc1S2(=O)=O)N1CCc2ccccc21 -6.01%, COc1ccc(OC)c(NC(=O)CSC2=Nc3ccccc3C3=NC(CCC(=O)NCCc4ccccc4)C(=O)N23)c1 (stereo not drawn) -9.75%, COc1ccccc1N1CCN(S(=O)(=O)c2c(C)sc3ncn(CC(=O)NCCN(C)C)c(=O)c23)CC1 -3.11%, Cc1nnc(NCc2ccc(F)cc2)c2c1nnn2Cc1ccccc1Cl -2.26%, CCOc1ccc(NC(=O)CCn2nc(C)c(S(=O)(=O)N3CCCCC3)c2C)cc1 -2.53%, COc1ccc(NC(=O)CC2C(=O)N(c3ccc(C)cc3)C(=O)N2Cc2ccc(C)cc2)cc1 (stereo not drawn) -1.88%, COc1ccc(CCNC(=O)Cn2nc(C)c3c(C)n(-c4ccc(C)cc4)nc3c2=O)c(OC)c1 -19.6%, Nc1ccc(S(=O)(=O)NC2(C(F)(F)F)NC(=O)N(c3cccc(Cl)c3)C2=O)cc1 (stereo not drawn) 15.3%, O=c1c2ccccc2nc(N2CCN(c3cccc(Cl)c3)CC2)n1-c1ccccc1 0.0477%, CCN(CC)CCCNC(=O)c1nn(-c2ccc(OC)cc2)c(=O)c2c1c1ccccc1n2C 8.76%, CC(=O)Nc1ccc(NC(=O)CCc2c(C)nc3c(c(C)nn3-c3ccccc3)c2C)cc1 -6.61%

outcome, inactive:
CCCN1C(=O)C2(c3ccccc31)c1c(oc3ccccc3c1=O)C(=O)N2CCCOC(C)C (stereo not drawn), COc1ccccc1N1CCN(C(=O)c2cc3c(=O)oc4ccccc4c3s2)CC1, COc1ccccc1NC(=O)C1=C(C)Nc2nc(SCc3cccc(F)c3)nn2C1c1ccc(C(=O)O)cc1 (stereo not drawn), Cc1ccc(NC(=O)c2cc(S(=O)(=O)N3CCCCC3)c[nH]2)cc1F, CCOc1ccc(C(=O)c2c(N)c(-c3nc(-c4ccc(OCC)cc4)cs3)c3ccccn23)cc1, Cc1ccc(NC(=O)Cn2c(=O)n(Cc3ccccc3)c(=O)c3c2c2cc(C)ccc2n3C)cc1, Cc1ccc(Cl)cc1NS(=O)(=O)c1ccc(N2CCCCS2(=O)=O)cc1, COc1ccc(CCNc2nc3cc(OC)c(OC)cc3c3nc(-c4cccnc4)nn23)cc1OC, COc1ccc(C(=O)Nc2nc3c(s2)Cc2cc(OC)ccc2-3)cc1, Cc1cccc(CN2C(=O)c3ccccc3Sc3ccc(C(=O)NCc4cccs4)cc32)c1, CCOC(=O)N1CCc2c(sc3c2c(=O)n(-c2ccc(F)cc2)c(=O)n3CC(=O)c2ccccc2)C1, CCOC(=O)c1c(NC(=O)c2cc3ccccc3c(=O)o2)sc2c1CCC(C(C)(C)C)C2 (stereo not drawn), CCc1ccc(NC(=O)c2cc(C)nn2-c2ccccc2)cc1, COc1ccc(NC(=O)c2oc3ccccc3c2NC(=O)COc2ccc(F)cc2)c(OC)c1, CCc1cccc(C)c1NC(=O)C(CC)Sc1nncn2c1cc1occc12 (stereo not drawn), CCOc1ccc(NC(=O)CCNS(=O)(=O)c2cccc3nsnc23)cc1, O=C(NCc1ccc(F)cc1)C(=O)NCC(c1ccco1)S(=O)(=O)c1cccs1 (stereo not drawn), CCC(C(=O)Nc1cccc(C#N)c1)n1nc(-c2ccccc2)ccc1=O (stereo not drawn), CCc1ccc(N2C(=O)N(CC(=O)C(C)(C)C)c3ccccc3S2(=O)=O)cc1, O=C(NCCC1=CCCCC1)c1ccc2c(c1)N(Cc1ccc(Cl)cc1)C(=O)c1ccccc1S2(=O)=O, Cc1c(Cl)cccc1NC(=O)Cn1cnc(S(=O)(=O)N2CCCC2)c1, CCC(C(=O)N1CCN(c2ccc(OC)cc2)CC1)n1nc(C)n2c(cc3occc32)c1=O (stereo not drawn)

Reference: PubChem BioAssay AID1963576 (National Center for Advancing Translational Sciences (NCATS), 2024)
